We go through 44 sequences from the supplement of paper PMC11417369.

The other results are listed elsewhere or left out.

The subject of this experiment is PfAP2-HC AP2 domain (GST-tagged). The experiment in a line: gcPBM binding intensity (ln(normalized median fluorescence intensity)); higher = stronger DNA binding. Put shortly:
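Using an Agilent 4 × 180k array, primer-extended double-stranded 36-bp intergenic genomic probes and negative controls were exposed for 1 h to GST-fused P. falciparum DNA-binding domains expressed in E. coli. Binding was carried out in 1× PBS with 1% milk, 0.2 mg/ml BSA, 0.5% salmon testes DNA and 0.03% Triton X-100, and protein was detected with Alexa488 anti-GST antibody and a 488 nm scan. Binding intensity is the highest Masliner-normalised natural-log median intensity across replicate spots of either probe orientation.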
For “GCTTCTTAATATCATACACACATAGATATATTTATA [CACACA_site5676]”, the “gcPBM binding intensity (ln)” value worked out at 9.86.
The figure for “GGAGACTTTGTATTGGGTACGTATTTCAATGCATGT [XGTACX_site1596]” is 9.46; for “AACAAATGTTAAATGTTTAAGGAGAAAATAAAGACA [CACACA_negctrl_site1163]” it is 9.73.
The figure for “GAAAACATAAAAATATGTACTTAAAATATATTTTGT [XGTACX_site868]” is 9.72; for “AAAACGAAACATCTGTGTATAAGTCTATATTATTAT [XGTACX_negctrl_site301]” it is 9.7.
With “TTTATGTGTATTAAGTGTACACATATAGTGTATTTT [XGTACX_site999]”, the “gcPBM binding intensity (ln)” value was 9.83.
Then “ATATATAAGGAAAAAAGTACTTATATTTTTTTTTTG [XGTACX_site1909]”, with 9.52; and “AAATAAAGCATGTGCTGTACAAACGAAATATTTAAG [XGTACX_site3146]”, with 10.2.
The figure for “TGTCATGATACATACACACACATACCCATACCCATA [CACACA_site5211]” is 10.6; for “AAATATATTATATGTACACACAAAATTAAGGGATAT [CACACA_site1375]” it is 10.1; for “ATATTTTTTAATTTTACACACCATATAAAATAATTC [CACACA_site7339]” it is 9.67.
Then “ATCAATACTTTTTTGGGTACATAAATATATATATAT [XGTACX_site8436]”, with 9.63; and “AACTAATTCATGTTATATTAGATAAAAAAAAAAAAA [TGCATGCA_negctrl_site340]”, with 9.31; and “AAAATAATAAATAAATGTACATATATATATATATAT [XGTACX_site3078]”, with 10.2.
Turning to “TTTTTTTTGTTCATTGTGCACATTGCTTGCATGGAA [GTGCAC_site9693]”, the “gcPBM binding intensity (ln)” value amounted to 9.61.
The figure for “ATAAGATTATACAATTGTACGTTGTTCAAGATAAGG [XGTACX_site191]” is 9.74; for “GTGTTTGAAAATAAAGCATGCAAATATATTTGAAAT [TGCATGCA_site386]” it is 9.77; for “TGGTTTCAATAATTAATAAAATATATTATTGTGAAA [CACACA_negctrl_site442]” it is 9.26.
The figure for “TCTAACATATAATATTCACACACATATATATATTAT [CACACA_site8236]” is 10.1; for “ATAATATATTTATAATGTACAAACCATTTGTATTAA [XGTACX_site4370]” it is 9.47.
The figure for “ATTATTATTATATTTTGTACATATGTAACAATATAT [XGTACX_site5780]” is 9.81.
As for CATTAAAATTGAGAGATGCACTTTTTAAGACCTTGT, the “gcPBM binding intensity (ln)” value came out at 9.43.
Then “AAAAAAAATTAAATAAATAAATATACACATATATAT [GTGCAC_negctrl_site394]”, with 9.65; and “AAAACATTGTTTATGTGTACATAATTATATTTACAA [XGTACX_site6926]”, with 9.68; and “TAAATATGTGTATGTAGTACATAGTGTTTTTTTTTT [XGTACX_site3748]”, with 9.72.
Then “TGCATATTACTTTTTCACATAAAAATGATCCGATTA [GTGCAC_negctrl_site526]”, with 9.4.
Then “ATATTATGAATTGTCACACATATATTTAAAAATGTA [CACACA_site4852]”, with 9.5; and “AAAATATAAAAATGAAGTACAAAAAAAAAAAAAAAA [XGTACX_site8132]”, with 9.47; and “GTTATACACATCAACACACACATACAACGTGGTGTA [CACACA_site6677]”, with 10.
Regarding “AAAAAATGACTTAATATGAGCATATATTATGTTGTT [CACACA_negctrl_site1609]”, the “gcPBM binding intensity (ln)” value was found to be 9.65.
“TTTTAACAAAAAAAAAGAAAAGAAAAGAAAATAATA [XGTACX_negctrl_site530]”: the “gcPBM binding intensity (ln)” value was found to be 9.39.
Then “TTAACTCTGGAGAAAAGTACATAGTATCTGGTAACA [XGTACX_site4941]”, with 9.49; and “CAAAAAACAACAGATCGTACAAAATATTATATATAT [XGTACX_site2285]”, with 9.91; and “TATCCATATTTGTTCACACACACACCGATTTATATA [CACACA_site5888]”, with 10.2.
Then “TTGAAAAATGAGCACACACACAAATACATACATATT [CACACA_site3231]”, with 10.4; and “ATTATAAAAATATATTGTACACAAAAATGTTTATAT [XGTACX_site5066]”, with 9.63.
On to “TGAGATATAAAAATATGTACTTATGTATAAATATTT [XGTACX_site7746]”, for which the “gcPBM binding intensity (ln)” value stood at 9.61.
“CCAAATTTATTTTGTAGTACTCCGTATAGATCAACA [XGTACX_site7945]”: the “gcPBM binding intensity (ln)” value was 9.47.
On to “AAGTTTTTTTTTAACACACACATAATAAAATAAATA [CACACA_site446]”, for which the “gcPBM binding intensity (ln)” value was 10.1.
Then “TATATTTATATCCACTTCGTTTAACGCACAGATATA [CACACA_negctrl_site954]”, with 9.72; and “AAATTATATATATTACGTACATAGAACTTTACAGAA [XGTACX_site6646]”, with 9.66.
The figure for “ATGTTACACCGACACACACACATAAAAAAACAAAAA [CACACA_site5750]” is 10.2; for “TCTTATTCAAACGTAAAACGAAGAAGAAAAAAAAAA [CACACA_negctrl_site149]” it is 9.44.
The figure for “ATATACTATATTTTAACACACAAAAAAAAAAAATAT [CACACA_site1091]” is 9.79.
